# According to PubChem BioAssay AID720708 (National Center for Advancing Translational Sciences (NCATS), 2013):
# The whole screen tested about 360,000 compounds, of which about 660 (0.18%) were called active. The shares of active, inactive and inconclusive entries below differ from those in the screen. The call rests on the fitted dose curve; in most records, active means well fitted inhibition curve with a large enough effect; inconclusive means small, poorly fitted or top-dose-only effect; inactive means no such curve, though single readings can be large or run the other way. No potency is given beside an inconclusive call; the fits are too rough.
# Target: Rap guanine nucleotide exchange factor 4 (Homo sapiens) (UniProt Q8WZA2)
# UniProt Q8WZA2, sequence (Q8WZA2 whole entry, looked up): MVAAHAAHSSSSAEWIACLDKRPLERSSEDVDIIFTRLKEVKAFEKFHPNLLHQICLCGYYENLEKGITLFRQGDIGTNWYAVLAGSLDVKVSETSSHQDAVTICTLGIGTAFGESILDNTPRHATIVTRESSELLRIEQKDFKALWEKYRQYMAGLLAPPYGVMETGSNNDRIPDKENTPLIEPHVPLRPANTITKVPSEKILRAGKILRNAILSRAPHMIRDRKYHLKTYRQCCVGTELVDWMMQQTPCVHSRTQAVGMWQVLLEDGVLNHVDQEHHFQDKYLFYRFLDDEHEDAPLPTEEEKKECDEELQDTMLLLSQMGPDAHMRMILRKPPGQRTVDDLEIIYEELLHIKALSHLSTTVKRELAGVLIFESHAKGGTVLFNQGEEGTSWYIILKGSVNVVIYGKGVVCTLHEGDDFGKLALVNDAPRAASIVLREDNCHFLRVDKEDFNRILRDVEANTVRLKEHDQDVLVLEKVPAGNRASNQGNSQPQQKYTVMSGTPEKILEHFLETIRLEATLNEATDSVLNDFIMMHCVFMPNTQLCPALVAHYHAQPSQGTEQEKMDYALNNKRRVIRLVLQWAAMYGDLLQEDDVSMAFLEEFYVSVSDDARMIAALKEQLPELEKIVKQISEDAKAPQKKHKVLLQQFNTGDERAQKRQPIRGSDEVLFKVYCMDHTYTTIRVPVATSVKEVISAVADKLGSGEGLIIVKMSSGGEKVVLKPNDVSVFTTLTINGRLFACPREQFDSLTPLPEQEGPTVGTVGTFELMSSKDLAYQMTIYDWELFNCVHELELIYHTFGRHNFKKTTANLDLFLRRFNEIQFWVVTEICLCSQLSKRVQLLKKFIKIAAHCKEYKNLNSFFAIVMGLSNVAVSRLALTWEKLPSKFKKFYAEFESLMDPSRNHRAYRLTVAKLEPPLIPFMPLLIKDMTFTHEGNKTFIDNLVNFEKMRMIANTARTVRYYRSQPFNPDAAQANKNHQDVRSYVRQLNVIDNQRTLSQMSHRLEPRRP
# Test: qHTS for Antagonist of cAMP-regulated guanine nucleotide exchange factor 2 (EPAC2): primary screen; further: nearly all actives have a fitted effect of over 45% in size
# Settings: EPAC2 GEF exchange of Rap1B-BODIPY-GDP, fluorescence; activity, negative = inhibition: at 114 µM (top of the series) unless noted
# On the % scale 0 is the no-effect control and ±100 the full control effect; potency means the concentration at half of the fitted maximal effect; tags describe the fitted curve by direction and shape.
SMILES,Potency,"activity, negative = inhibition"
Cc1cc2oc(=O)cc(CN(C)Cc3ccccc3)c2cc1C(C)C,"inconclusive [inhibitor, full curve, poor fit]",–
CSc1ccc(S(=O)(=O)N(C)Cc2ccccc2)cc1,"inconclusive [inhibitor, partial curve]",–
O=C(CCC1CCCCC1)NCCN1CCOCC1,"inconclusive [inhibitor, single point]",–
Cc1cccc(NC(=S)N/N=C2\CC(C)(C)Oc3ccc(O)cc32)c1,"inconclusive [inhibitor, partial curve]",–
Cc1csc(NC(=O)CCCC(=O)O)c1-c1nc2ccccc2s1,"inconclusive [inhibitor, full curve, poor fit]",–
COc1ccccc1Cc1c(-c2ccc(Cl)cc2)nc2ccc(Cl)cn12,"inconclusive [inhibitor, partial curve]",–
N#C/C(=C(/O)C(Cl)(Cl)Cl)c1nc2ccccc2[nH]1,active: 12.6 µM,–
COc1ccc(/C=N/NC(=O)c2ccc(N3CCCC3=O)cc2)cc1,–,inconclusive: -20.1% [inhibitor]
O=C(O)c1cc([N+](=O)[O-])c(Nc2cccc3ccccc23)c([N+](=O)[O-])c1,"inconclusive [inhibitor, partial curve]",–
Cc1cc(C)c2c(=O)n(CC(=O)NCCCN3CCN(c4ccccc4F)CC3)sc2n1,–,inactive: -4.06%
O=C(/C=C/c1ccc(Cl)cc1Cl)c1ccc[nH]1,"inconclusive [inhibitor, full curve]",–
N#C/C(=C/c1ccc(O)c(O)c1)c1nc2ccccc2[nH]1,"inconclusive [inhibitor, single point]",–
CCC(C)(C)NC(=O)c1sccc1Oc1ccc(F)cc1[N+](=O)[O-],"inconclusive [inhibitor, partial curve]",–
O=c1cccccc1NCc1ccccc1,–,inactive: 1.09%
CC(=O)/C(=C/N(C)C)Sc1ccc(C)cc1,"inconclusive [inhibitor, single point]",–
CCc1ccc(CN2CCCC(C(=O)Nc3ccccc3-c3ccc(OC)cc3)C2)o1 (configuration not stated),"inconclusive [inhibitor, partial curve]",–
CN(CC(=O)Nc1ccc(Cl)c(Cl)c1)C(=O)CC1OC(=O)c2ccccc21 (configuration not stated),–,inactive: -0.155%
CCC(C(=O)OCC(=O)Nc1ccc(OC)cc1OC)c1ccccc1 (configuration not stated),"inconclusive [inhibitor, partial curve]",–
CN1OC[C@@H]2CN(Cc3ccc(Cl)cc3)[C@H](c3ccc(-n4ccnc4)cc3)C[C@@H]21,"inconclusive [inhibitor, partial curve, poor fit]",–
CN(C)c1ccc(N=Nc2ccc(S(=O)(=O)O)cc2)c2ccccc12,"inconclusive [inhibitor, single point]",–
Cc1ccc2c(c1)C1CN(C)CCC1N2Sc1ccccc1[N+](=O)[O-] (configuration not stated),"inconclusive [inhibitor, partial curve]",–
CCCN1C(=S)c2ccccc2C1c1ccccc1 (configuration not stated),"inconclusive [inhibitor, full curve]",–
Brc1cccc(Cn2c(-c3cncs3)nc3ccccc32)c1,"inconclusive [inhibitor, partial curve]",–

SMILES,Potency,"activity, negative = inhibition"
CC1OC(CC(=O)O)CC2=C1C(=O)c1c(O)cccc1C2=O (configuration not stated),"inconclusive [inhibitor, single point]",–
O=C(NC1CCCC1)c1sc(=S)n2c1[nH]c(=O)c1ccccc12,"inconclusive [inhibitor, partial curve]",–
O=[N+]([O-])c1ccc(N2CCCCC2)s1,"inconclusive [inhibitor, partial curve]",–
CC(=O)N1CCN(S(=O)(=O)c2cccc(C(=O)N3CCN(S(=O)(=O)c4c(C)c(C)cc(C)c4C)CC3)c2)CC1,"inconclusive [inhibitor, single point]",–
COc1cc(/C=C2\SC(=S)N(NS(=O)(=O)c3ccc(C)cc3)C2=O)ccc1O,"inconclusive [inhibitor, partial curve]",–
CCCC(=O)NC(c1ccccc1)c1c(O)ccc2ccccc12 (configuration not stated),"inconclusive [inhibitor, partial curve]",–
Nc1nc(-c2ccc3c(c2)OCCO3)cs1,–,inactive: 5.26%
Cc1cc(C)n2cc(CSc3nnc(-c4ccccc4)o3)nc2n1,"inconclusive [inhibitor, partial curve]",–
COc1ccc2c(c1)C(=O)CC(c1ccccc1)O2 (configuration not stated),"inconclusive [inhibitor, partial curve]",–
CCOC(=O)C1Nc2c(F)cc(C)cc2C2c3ccccc3CC12 (configuration not stated),"inconclusive [inhibitor, full curve]",–
CCOC(=O)C(C)Sc1ncc(OC)c(Sc2ccc(Cl)cc2)n1 (configuration not stated),"inconclusive [inhibitor, partial curve]",–
CN(C/C=C/C#CC(C)(C)C)Cc1cccc2ccccc12,"inconclusive [inhibitor, single point]",–
CN(c1ccccc1)c1nc(N)c([N+](=O)[O-])c(NC2CCCCC2)n1,"inconclusive [inhibitor, full curve, poor fit]",–
CCNS(=O)(=O)c1ccc(CCC(N)=O)cc1,"inconclusive [inhibitor, single point]",–
N#Cc1sc2nc(C3CC3)cc(-c3ccc(Cl)cc3)c2c1N,–,inactive: -15.4%
O=C(Nc1cccc(S(=O)(=O)Nc2ccc(SC(F)F)cc2)c1)C1CCC1,"inconclusive [inhibitor, partial curve]",–
CCC(C(=O)Nc1sc(C(N)=O)c(C)c1C(=O)OC)c1ccccc1 (configuration not stated),"inconclusive [inhibitor, single point]",–
C=CCNCCCCOc1ccc(OCc2ccccc2)cc1,–,inactive: 1.05% [at 57.1 µM]
COc1cccc(/C=C2\SC(=S)N(C(Cc3ccccc3)C(=O)O)C2=O)c1 (configuration not stated),"inconclusive [inhibitor, partial curve]",–
CC(C)Oc1ccccc1NC(=O)CSc1nc2ccccc2c(=O)n1C,"inconclusive [inhibitor, full curve, poor fit]",–
O=C(Nc1ccc(-c2cn3ccccc3n2)cc1)c1cccs1,"inconclusive [inhibitor, partial curve]",–
CCCCc1c(-c2ccccc2OC)ncn1CCc1cccc(OC)c1,"inconclusive [inhibitor, partial curve]",–
O=C1CSC(c2ccc(Cl)c(Cl)c2)N1c1nccs1 (configuration not stated),"inconclusive [inhibitor, full curve]",–

SMILES,Potency,"activity, negative = inhibition"
COCCNC(=O)C1(C)CCN(C(=O)c2ccc(C(F)(F)F)nc2C)C1 (configuration not stated),–,inactive: -17.9%
O=c1cc(-c2ccccc2Cl)oc2c([N+](=O)[O-])c(O)cc(O)c12,"inconclusive [inhibitor, partial curve]",–
COc1ccc(Cc2nnc(NS(=O)(=O)c3ccc(Cl)cc3)s2)cc1OC,"inconclusive [inhibitor, partial curve]",–
O=C1Nc2ccccc2N=C(c2ccccc2)C1N(C(=O)c1ccnc2ccccc12)c1ccccc1 (configuration not stated),–,inactive: -6.18%
CCC(=C(c1ccc(OC)cc1)c1ccc(OC)cc1)c1cn(CC(O)CN(CCO)CCO)c2ccccc12 (configuration not stated),active: 14.1 µM,–
Cc1nc2c(C(=O)NCCC3=CCCCC3)c[nH]n2c(=O)c1Cl,"inconclusive [inhibitor, partial curve]",–
COc1ccccc1Cn1c(=O)oc2ccccc21,"inconclusive [inhibitor, partial curve, poor fit]",–
S=C(Nc1ccc(Br)cc1)Nc1ccc2c(c1)OCCO2,–,inactive: -6.2%
CS(=O)(=O)N(CC(=O)Nc1ccccc1-c1ccccc1)c1cccc(F)c1,"inconclusive [inhibitor, single point]",–
CCC(=O)NC(c1ccccc1)c1c(OC(C)=O)ccc2ccccc12 (configuration not stated),"inconclusive [inhibitor, partial curve]",–
COc1ccc(NC(=O)CN2CCN(c3c(C)cc(C)cc3C)CC2)cc1,"inconclusive [inhibitor, full curve, poor fit]",–
Cc1cc2ccccn2c1C(=O)c1cccc([N+](=O)[O-])c1,"inconclusive [inhibitor, partial curve]",–
CC[n+]1c(/C=C/c2ccc(N(C)C)cc2)ccc2ccccc21,"inconclusive [inhibitor, single point]",–
COc1ccc(S(=O)(=O)N2CCCCC2c2cc(C(=O)NCc3cccnc3)no2)cc1 (configuration not stated),"inconclusive [inhibitor, full curve, poor fit]",–
CCOC(=O)Nc1ccc(NCc2ccc(F)cc2)nc1N,"inconclusive [inhibitor, single point]",–
CCOc1ccc(S(=O)(=O)N2CN(c3cccc(C(C)=O)c3)c3nc4ccccc4nc32)cc1,–,inactive: -7.01%
CCn1c(C)c(C(=O)O)c2cc(OC)c3ccccc3c21,–,inactive: -10.5%
CCN(CCCNC(=O)Cn1ncc2c([nH]c3ccc(C)cc32)c1=O)c1cccc(C)c1,–,inconclusive: -14.6% [inhibitor]
COC(=O)[C@@]12C[C@@H](CC(=O)NCc3ccc(OC)c(OC)c3)C(=O)N(Cc3cccc4ccccc34)C1=CCC(C)(C)C2,–,inactive: -18.9%
Brc1ccc(COc2cccc3cccnc23)cc1,"inconclusive [inhibitor, partial curve]",–
Cc1nn(C)cc1C(=O)/C=C/c1ccc([N+](=O)[O-])cc1,–,inactive: -5.48%
